± gives the standard deviation of the averaged measurements. The list shows a part of the results.
test system: PfAP2-I AP2 domain 3 (GST-tagged); test: gcPBM binding intensity (ln(normalized median fluorescence intensity)); higher = stronger DNA binding
Summary of the method: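 Binding intensity is defined as the maximum Masliner-normalised natural-log median intensity across replicate spots for either probe orientation. It was measured on an Agilent 4 × 180k array of primer-extended double-stranded 36-bp intergenic genomic probes and negative controls, to which GST-tagged P. falciparum DNA-binding domains made in E. coli were applied for 1 h in 1× PBS with 1% milk, 0.2 mg/ml BSA, 0.5% salmon testes DNA and 0.03% Triton X-100. Detection was by Alexa488 anti-GST antibody and scanning at 488 nm.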

| Sequence | gcPBM binding intensity (ln) |
| --- | --- |
| AATTTATTTTTAAAAAGTACATACTTAAGAAAACGA [XGTACX_site3660] | 8.12 ± 0.29 |
| GATTCATTTCATAATACACACAACAAATATTTCAAA [CACACA_site120] | 8.04 ± 0.29 |
| TCGACAATTTTATAAAGTACTTATTAGAAATATGAA [XGTACX_site7133] | 7.6 ± 0.26 |
| CCATTTAAAACATTTTGTACTTATTTTACATTTCTG [XGTACX_site4270] | 7.88 ± 0.59 |
| AAACAAATAAAATTTATTAAAAAGGTCATATTATTA [CACACA_negctrl_site85] | 7.26 ± 0.44 |
| AGAAAAAAAAATTATACATGCATATACGTTTATTTT [TGCATGCA_site529] | 7.64 ± 0.83 |
| TATTAATAAATTTATAAAACAGGTATATATATATAT [CACACA_negctrl_site615] | 9.3 ± 0.48 |
| ATATATATATATATATGTACACACATCAATCATATT [XGTACX_site4005] | 9.49 ± 0.34 |
| AGAGTACAAGTAAATACACACATATAGATGAAAATA [CACACA_site6635] | 7.93 ± 0.72 |
| AAGAAAACTTAAAATAAAAGCATATTTTATCTTACA [TGCATGCA_negctrl_site366] | 7.25 ± 0.36 |
| TGCAGTCTGGAGAAGAGTACATAGTATCTGGTAGCT [XGTACX_site2021] | 7.71 ± 0.9 |
| ATGTATATGATTAAATGTACGTAAACAAATTTGTAA [XGTACX_site8174] | 7.96 ± 0.42 |
| ACCACATAAAACAAATGTACTTGAAATATATGCGTA [XGTACX_site5155] | 7.59 ± 0.43 |
| CAAAGGGAAATTAACACACACATATTTATATTTATA [CACACA_site7202] | 7.63 ± 0.49 |
| AAAAAAAAAAAAAACACACACATACAGACAAAAATG [CACACA_site83] | 8.34 ± 0.61 |
| CTAAATTATAGATCAGTGCAATTTAATATGAGTCCA | 8.91 ± 0.22 |
| TTGTAATTATTAAACACACACAAAATATATATAATA [CACACA_site2523] | 7.84 ± 0.52 |
| AGGTGAGCTCAGACTACACACACAAAGAAAAAAATA [CACACA_site8439] | 7.7 ± 0.53 |
| CCATAAAAATATAATACACACATATATATTAACATA [CACACA_site4102] | 7.75 ± 0.35 |
| TATATATGTATCAAGTGTACAGTTTTAAAAAAAAAA [XGTACX_site6011] | 8.06 ± 0.61 |
| GAACATTTGAAATATGCACACATGTATAAACATACA [CACACA_site5463] | 8.85 ± 0.13 |
| ACACACAATACAAAAGTGCATATAATAATTAATCAT | 9.945 ± 0.064 |
| TGTTTTTAAAAAAAAAAAAAATCACACCGGCAGGTA [CACACA_negctrl_site1437] | 7.62 ± 0.66 |

| Sequence | gcPBM binding intensity (ln) |
| --- | --- |
| TGCGTATATATATACACACACATATATATATTTTAA [CACACA_site1952] | 7.64 ± 0.42 |
| TATTTCATTAATGTCACTTTGAAAGAAATGAAAAAA [CACACA_negctrl_site1803] | 7.7 ± 0.5 |
| AAAAAAAAAAGACACACACACAAAATAAACAAACAA [CACACA_site7308] | 7.95 ± 0.49 |
| CATATTATTCTTTTCACACACGCGTTAATAATAATC [CACACA_site3931] | 8.4 ± 0.62 |
| TATTGACATATATTAGTGCAATAATGAAATCAAGTA | 10.9 ± 0.43 |
| TTTTTTTGCCATATTACACACACACGGGTAAACCCC [CACACA_site6874] | 8.12 ± 0.61 |
| TAAATTTTTATTTGTAGTACTATATATATATATATA [XGTACX_site1026] | 9.41 ± 0.36 |
| TTTAATATAACTATTTGTACATAAAGAATATAAATA [XGTACX_site4594] | 7.65 ± 0.38 |
| TAATGAAAATATATAACACACAAAAGTTATAAATAT [CACACA_site1189] | 7.79 ± 0.67 |
| GTGTTGAATTATGTGCTTTTTTCTTTCTACTCAGTA [XGTACX_negctrl_site464] | 8.59 ± 0.55 |
| AAGAGAAAAAGAATGAAAGAAAAAAAAAAAAAATAT [CACACA_negctrl_site1527] | 7.76 ± 0.73 |
| CCCACAGACAAAAACACACACAAAGGTGTTCTTATA [CACACA_site4840] | 7.52 ± 0.67 |
| TTTTTAAAGGTGATAAAACACACGATTTAGAAATGT [CACACA_site3160] | 8.04 ± 0.77 |
| CTACATAAAAAAATATGTACATATATATATATATAT [XGTACX_site667] | 9.36 ± 0.43 |
| TTATCGACCAATAAAGCATGCAAAAAAAAAAAAAAA [TGCATGCA_site788] | 8.15 ± 0.67 |
| TCGTGCATAAATCATACACACACACCGATATATATA [CACACA_site8767] | 11.3 ± 0.67 |
| TCACAATTTTTTAGTACACACATATAAATATATAAA [CACACA_site1537] | 8.185 ± 0.035 |
| TTTGTATCCTTTTTGACATGCAACCATTCGGGTACA [TGCATGCA_site506] | 7.75 ± 0.77 |
| AAAAAAAAAAAAAACGCACACATTTTTACAATTCTA [CACACA_site3271] | 9.03 ± 0.57 |
| TCTATTAATTAATATACACACATTATGTATATATAT [CACACA_site2541] | 8.07 ± 0.88 |
| TTTCATTAATCTAATAGTACAGAAAATTGAGAAAAA [XGTACX_site8395] | 8.11 ± 0.53 |
| GTATACAAACATATAAATATAAATGTATTATTTGTT [CACACA_negctrl_site756] | 7.36 ± 0.42 |
| ACTTTAACCTGAACGGTGCATAAAATTTTGGCATTA | 10.9 ± 0.35 |

| Sequence | gcPBM binding intensity (ln) |
| --- | --- |
| AAAGATAAAAAAAGTACACACACACCGATATATATA [CACACA_site9006] | 8.39 ± 0.7 |
| CACGAACACAAACACAAACACACATCATATATATAT [CACACA_site1322] | 9.25 ± 0.16 |
| AATATATATAAAAAGGGAAAAATATATAAATAGATA [XGTACX_negctrl_site52] | 7.52 ± 0.55 |
| AAAAAATTGACTAATGCACACAATTACAGATATATA [CACACA_site5010] | 10.3 ± 0.4 |
| ATAAAATATATGAAGACACACATAACATCATATTTT [CACACA_site3144] | 7.51 ± 0.68 |
| CATAATATGACATACACACACAAAAAAAAAAAAATA [CACACA_site1285] | 7.51 ± 0.45 |
| AACCGGGCCTAAGATGTAATGCCTTAGCCTATAAAA [CACACA_negctrl_site479] | 7.45 ± 0.81 |
| TTTATATTAAAATATTGTACGGACATTATTTTGTAA [XGTACX_site8128] | 7.545 ± 0.064 |
| TAAACATAATATTTAACACACATGAAGATGTATATT [CACACA_site1036] | 7.45 ± 0.44 |
| ATAAATATTTACAAAAGTACACATAACTTTAGATAT [XGTACX_site1685] | 7.75 ± 0.5 |
| ACAATCCACAGGGGCGCACACATATAAGCAGTATAT [CACACA_site3817] | 8.46 ± 0.4 |
| GTTTTGGCTAACTATTCACACATTAAAATATTACCA [CACACA_site5016] | 7.99 ± 0.77 |
| CACCATGATACATACACACAGACATATACGCATTCA [CACACA_site1008] | 7.93 ± 0.6 |
| TTTGTTGTTTGGAGATGTACATATTTTACACTTTTT [XGTACX_site5965] | 8.06 ± 0.44 |
| AAAAAATTAATAAAAACACACAAAAAAAATAAACAA [CACACA_site1907] | 7.75 ± 0.77 |
| ATTTCACAGAGACACACACACAATATATTTCCTTTT [CACACA_site7773] | 8.02 ± 0.64 |
| TTTTATCAAATATTTATTTTATACATAAATATTTAT [XGTACX_negctrl_site528] | 7.76 ± 0.45 |
| ATTTTGTGTAGTGATGCATGTTATATATATATTTGA [TGCATGCA_site422] | 8.06 ± 0.63 |
| AGAAACATATGGTAGTGTACTGTAAATTTATTCTTT [XGTACX_site8602] | 7.82 ± 0.59 |
| ATAACATCAGTATTATGTACATATGTAGGTAAATAA [XGTACX_site7066] | 8.05 ± 0.53 |
| CGTTATTATACACATACACACAGGAATAAAAAATTA [CACACA_site7373] | 8.1 ± 0.38 |
| TTTTATTGTTTTTTTTTTTTTTCTTTTTTTTTTTTT [CACACA_negctrl_site1094] | 7.91 ± 0.46 |
| TACATATTTTGTATATATTATTTATTTTATTAGTTT [XGTACX_negctrl_site85] | 7.41 ± 0.2 |

| Sequence | gcPBM binding intensity (ln) |
| --- | --- |
| TTCTGACTTGTTATAATTTGTATATCCGAAAAAATT [TGCATGCA_negctrl_site456] | 7.84 ± 0.45 |
| ACTATTATTAAAAATTGTACTTTCTATAAATTTTTT [XGTACX_site7825] | 7.79 ± 0.69 |
| GATCTATACATGGGGACACACATCACTCTATATTTT [CACACA_site3408] | 8.16 ± 0.63 |
| ATTTGTTATATATTCTTTTATGTTAATAATTCGAAT [CACACA_negctrl_site378] | 7.68 ± 0.54 |
| AAAAAATACAAACACACACACACACCCATATATATA [CACACA_site3560] | 8.38 ± 0.47 |
| TATGAATAAAAAAGAAGTACAAATTATATGAACGCA [XGTACX_site3018] | 8.14 ± 0.52 |
| CATACTGTTATAAAATGTACGCATATACACACACAT [XGTACX_site7256] | 8.11 ± 0.37 |
| TTTTGTTTAATATTCACACATATATATTTTTTATTT [CACACA_site5496] | 7.79 ± 0.52 |
| CTTTTTATTTAGGAGGTGCATGTAATACGGAACATA | 9.8 ± 0.42 |
| GGTAATTTCCTTTTTTGTACTCATAGAAGGATAATA [XGTACX_site89] | 7.83 ± 0.55 |
| TTTGAAATATTAAATGCATGTTAAAACATAAAAATG [TGCATGCA_site680] | 7.91 ± 0.73 |
| TTTCTTCTTCTATTGTGTACGTAAAAAAAAAAAAAA [XGTACX_site772] | 8.31 ± 0.52 |
| TGATAAAATGGGGAAATTCATTATATCATATCTTGG [CACACA_negctrl_site789] | 7.51 ± 0.64 |
| TTGGATAAAAAATATGTACACACATATAGATATCTA [CACACA_site8862] | 7.73 ± 0.33 |
| ATTATATTAAAATACACACCCAAATATTAAAAAGAT [CACACA_site5613] | 8.46 ± 0.44 |
| TTTTTTTTTTGTTGAGTGCAATTATTTGTAAGAAAA | 10.1 ± 0.51 |
| AAATTAATATATAAAAGTACCCATATATTTAATATA [XGTACX_site3551] | 7.54 ± 0.45 |
| TCAAAGCACCCATACACACACATATATATATATATA [CACACA_site4317] | 9.91 ± 0.7 |
| GTACGTTACATAAATGTGCACATATTATATGCGAAG | 9.87 ± 0.24 |
| GTCATATATATATGTACACACATATATATATTTATA [CACACA_site1459] | 7.77 ± 0.28 |

— the supplement of paper PMC11417369
